# Measured values published in the supplement of paper PMC4604168 (melanoma cell lines).
# The other results are listed elsewhere or left out. Single values are uncertain, as repeats are few or missing.
# Columns and labels:
# Assay in all cases: cell count relative to DMSO control; melanoma cells; higher = more viable cells
# Details in all cases: library dose: low library concentration; 72 h
# WM115 = system: WM115
# WM1716 = system: WM1716
# WM1745 = system: WM1745
# WM3526 = system: WM3526
# WM3619 = system: WM3619
# WM451Lu = system: WM451Lu
# 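Also: cell number obtained by counting DAPI-stained nuclei in high-throughput microscope images with image analysis software, screen run in 1,536-well plates.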
Compound,cell count (WM115),cell count (WM1716),cell count (WM1745),cell count (WM3526),cell count (WM3619),cell count (WM451Lu)
"Clc1ccc(Nc2nnc(Cc3ccncc3)c3ccccc23)cc1 [vatalanib] + NCC(=O)Nc1ccc(-n2nc(C(F)(F)F)cc2-c2ccc3c(ccc4ccccc43)c2)cc1 [OSU03012] (first compound 2 µM, partner dose 1 µM)",86%,97.3%,93.3%,53.5%,113%,61.8%
"Cn1c(Nc2ccc(C(F)(F)F)cc2)nc2cc(Oc3ccnc(-c4ncc(C(F)(F)F)[nH]4)c3)ccc21 + COc1cc(N2CCC(N3CCN(C)CC3)CC2)ccc1Nc1ncc(Cl)c(Nc2ccccc2S(=O)(=O)C(C)C)n1 [NVP-TAE684] (first compound 0.08 µM, partner dose 0.08 µM)",58.9%,91%,64%,44.1%,72%,67.3%
"O=C(CCCCCCC(=O)Nc1ccccc1)NO [vorinostat] + CCCCCCCCCCCC1=C(O)C(=O)C=C(O)C1=O [Embelin] (first compound 0.08 µM, partner dose 1.2 µM)",108%,103%,90.4%,99.4%,116%,101%
"Cn1c(Nc2ccc(C(F)(F)F)cc2)nc2cc(Oc3ccnc(-c4ncc(C(F)(F)F)[nH]4)c3)ccc21 + COc1cc(Nc2ncc(F)c(Nc3ccc4c(n3)NC(=O)C(C)(C)O4)n2)cc(OC)c1OC [Tamatinib] (first compound 0.08 µM, partner dose 0.4 µM)",68.5%,105%,62%,73.7%,91.9%,137%
"COCC[n+]1c2c(n(Cc3cnccn3)c1C)C(=O)c1ccccc1C2=O + Cn1cncc1[C@@](N)(c1ccc(Cl)cc1)c1ccc2c(c1)c(-c1cccc(Cl)c1)cc(=O)n2C [tipifarnib] (first compound 0.0004 µM, partner dose 0.01 µM)",84.2%,90.1%,102%,72.8%,97.3%,70.7%
"C#Cc1cccc(Nc2ncnc3cc(OCCOC)c(OCCOC)cc23)c1 [erlotinib] + Oc1cc(-c2nc(-c3ccccc3)[nH]c2-c2ccncc2)ccc1Cl [L779450] (first compound 0.8 µM, partner dose 0.2 µM)",88%,98.5%,72.9%,72.7%,64.8%,106%
"Clc1ccc(Nc2nnc(Cc3ccncc3)c3ccccc23)cc1 [vatalanib] + N#Cc1c(O)c2c(-c3ccc(-c4ccccc4O)cc3)csc2[nH]c1=O [A769662] (first compound 2 µM, partner dose 2 µM)",103%,92.6%,89.4%,91.1%,85.6%,57.4%
"OCc1c[nH]c2ccccc12 [Indole-3-carbinol] + O=C(O)C(=O)Nc1sc2c(c1C(=O)O)CCNC2 [TCS401] (first compound 0.8 µM, partner dose 1.66667 µM)",103%,115%,92.2%,96.8%,99.5%,108%
"Cn1c(Nc2ccc(C(F)(F)F)cc2)nc2cc(Oc3ccnc(-c4ncc(C(F)(F)F)[nH]4)c3)ccc21 + NCC(=O)Nc1ccc(-n2nc(C(F)(F)F)cc2-c2ccc3c(ccc4ccccc43)c2)cc1 [OSU03012] (first compound 0.08 µM, partner dose 1 µM)",51.3%,75.1%,71.8%,50.7%,74.7%,59.5%
"Nc1cccc2c1CN(C1CCC(=O)NC1=O)C2=O (configuration not stated) [lenalidomide] + COC(=O)c1sccc1S(=O)(=O)Nc1ccc(Nc2ccccc2)cc1OC [GSK0660] (first compound 1 µM, partner dose 1 µM)",105%,98.3%,105%,114%,156%,106%
"C#Cc1cccc(Nc2ncnc3cc(OCCOC)c(OCCOC)cc23)c1 [erlotinib] + c1cc(-c2cnn3cc(-c4ccc(OCCN5CCCCC5)cc4)cnc23)ccn1 [Dorsomorphin] (first compound 0.8 µM, partner dose 0.4 µM)",91.5%,94%,79%,87.9%,90.9%,104%
"C#Cc1cccc(Nc2ncnc3cc(OCCOC)c(OCCOC)cc23)c1 [erlotinib] + NC(=O)Nc1cc(-c2cccc(F)c2)sc1C(=O)N[C@H]1CCCNC1 [AZD7762] (first compound 0.8 µM, partner dose 0.02 µM)",76.6%,88.4%,81.1%,70.8%,44.2%,87%
"O=C(CCCCCCC(=O)Nc1ccccc1)NO [vorinostat] + COc1ccc2c(c1)CCC1C2CCC2(C)C(NCCCCCCN3C(=O)C=CC3=O)CCC12 [U73122] (first compound 0.08 µM, partner dose 0.4 µM)",97.3%,108%,94.4%,84%,114%,90%
"COCC[n+]1c2c(n(Cc3cnccn3)c1C)C(=O)c1ccccc1C2=O + O=C(Nc1ccccc1)c1cc([N+](=O)[O-])ccc1Cl [GW9662] (first compound 0.0004 µM, partner dose 2 µM)",91.5%,93.8%,102%,105%,132%,95.3%
"C#Cc1cccc(Nc2ncnc3cc(OCCOC)c(OCCOC)cc23)c1 [erlotinib] + C=CCn1c(=O)c2cnc(Nc3ccc(N4CCN(C)CC4)cc3)nc2n1-c1cccc(C(C)(C)O)n1 [MK1775] (first compound 0.8 µM, partner dose 0.02 µM)",76.5%,69.6%,62.7%,96.3%,47.3%,134%
"Cn1c(Nc2ccc(C(F)(F)F)cc2)nc2cc(Oc3ccnc(-c4ncc(C(F)(F)F)[nH]4)c3)ccc21 + Oc1cc(-c2nc(-c3ccccc3)[nH]c2-c2ccncc2)ccc1Cl [L779450] (first compound 0.08 µM, partner dose 0.2 µM)",49.9%,73.3%,49.7%,41.8%,64.2%,102%
"C#Cc1cccc(Nc2ncnc3cc(OCCOC)c(OCCOC)cc23)c1 [erlotinib] + Cn1cc(/C=C2\C(=O)Nc3cccnc32)c2ccccc21 [GW441756] (first compound 0.8 µM, partner dose 0.4 µM)",101%,99.6%,73.6%,98.3%,98.8%,111%
"C#Cc1cccc(Nc2ncnc3cc(OCCOC)c(OCCOC)cc23)c1 [erlotinib] + Cc1cc([N+](=O)[O-])ccc1NS(=O)(=O)c1cc(Cl)ccc1Cl [FH535] (first compound 0.8 µM, partner dose 1 µM)",77.2%,92.5%,90.4%,91%,110%,99.1%
"OCc1c[nH]c2ccccc12 [Indole-3-carbinol] + CCCCCCCCCCCC1=C(O)C(=O)C=C(O)C1=O [Embelin] (first compound 0.8 µM, partner dose 1.2 µM)",107%,73.4%,98.8%,99.9%,105%,106%
"Cn1c(Nc2ccc(C(F)(F)F)cc2)nc2cc(Oc3ccnc(-c4ncc(C(F)(F)F)[nH]4)c3)ccc21 + COc1ccc2c(c1)CCC1C2CCC2(C)C(NCCCCCCN3C(=O)C=CC3=O)CCC12 [U73122] (first compound 0.08 µM, partner dose 0.4 µM)",53.1%,50.7%,58.5%,44.5%,75.3%,110%
"Nc1cccc2c1CN(C1CCC(=O)NC1=O)C2=O (configuration not stated) [lenalidomide] + COc1ccc2c(c1)CCC1C2CCC2(C)C(NCCCCCCN3C(=O)C=CC3=O)CCC12 [U73122] (first compound 1 µM, partner dose 0.4 µM)",101%,97.6%,86.3%,82.9%,82.4%,99.3%
"O=C(CCCCCCC(=O)Nc1ccccc1)NO [vorinostat] + CO[C@@H]1[C@H](N(C)C(=O)c2ccccc2)C[C@H]2O[C@]1(C)n1c3ccccc3c3c4c(c5c6ccccc6n2c5c31)C(=O)NC4 [Midostaurin] (first compound 0.08 µM, partner dose 0.08 µM)",66.3%,92.8%,82.2%,88.4%,85.3%,76.9%
"O=C(CCCCCCC(=O)Nc1ccccc1)NO [vorinostat] + C[C@@H]1CCN(C(=O)CC#N)C[C@@H]1N(C)c1ncnc2[nH]ccc12 [CP690550] (first compound 0.08 µM, partner dose 1 µM)",104%,95.4%,104%,104%,93.1%,83.1%
"C#Cc1cccc(Nc2ncnc3cc(OCCOC)c(OCCOC)cc23)c1 [erlotinib] + Nc1cccc2c1CN(C1CCC(=O)NC1=O)C2=O [lenalidomide] (first compound 0.8 µM, partner dose 1 µM)",100%,95.2%,88.1%,102%,84.9%,116%
"Cn1c(Nc2ccc(C(F)(F)F)cc2)nc2cc(Oc3ccnc(-c4ncc(C(F)(F)F)[nH]4)c3)ccc21 + O=S(=O)(c1ccccc1)N(CC(F)(F)F)c1ccc(C(O)(C(F)(F)F)C(F)(F)F)cc1 [T0901317] (first compound 0.08 µM, partner dose 1.4 µM)",50%,67.3%,53.1%,51.8%,67.7%,72.9%
"Clc1ccc(Nc2nnc(Cc3ccncc3)c3ccccc23)cc1 [vatalanib] + Cn1cncc1[C@@](N)(c1ccc(Cl)cc1)c1ccc2c(c1)c(-c1cccc(Cl)c1)cc(=O)n2C [tipifarnib] (first compound 2 µM, partner dose 0.01 µM)",82.6%,70.5%,84.7%,77.7%,89.6%,91.5%
"Cn1c(Nc2ccc(C(F)(F)F)cc2)nc2cc(Oc3ccnc(-c4ncc(C(F)(F)F)[nH]4)c3)ccc21 + COc1ccc(COc2ccc(Cc3cnc(N)nc3N)cc2OC)cc1 [GW2580] (first compound 0.08 µM, partner dose 1 µM)",67.8%,75%,79.9%,54.5%,69.4%,88.4%
